Laboratory results reported in paper PMC4336329 (PLoS ONE, 2015).
Screen size: about 310,000 compounds; about 2,200 (0.71%) showed an effect of 50% or more. The effect is printed as a negative number. The list shows a part of the results.

Molecular target: human ether-à-go-go-related gene (hERG) potassium channel (human, UniProt Q12809)
Experiment: primary screen, population patch clamp on CHO cells stably expressing hERG

Sequence of human ether-à-go-go-related gene (hERG) potassium channel (Q12809 whole entry, looked up): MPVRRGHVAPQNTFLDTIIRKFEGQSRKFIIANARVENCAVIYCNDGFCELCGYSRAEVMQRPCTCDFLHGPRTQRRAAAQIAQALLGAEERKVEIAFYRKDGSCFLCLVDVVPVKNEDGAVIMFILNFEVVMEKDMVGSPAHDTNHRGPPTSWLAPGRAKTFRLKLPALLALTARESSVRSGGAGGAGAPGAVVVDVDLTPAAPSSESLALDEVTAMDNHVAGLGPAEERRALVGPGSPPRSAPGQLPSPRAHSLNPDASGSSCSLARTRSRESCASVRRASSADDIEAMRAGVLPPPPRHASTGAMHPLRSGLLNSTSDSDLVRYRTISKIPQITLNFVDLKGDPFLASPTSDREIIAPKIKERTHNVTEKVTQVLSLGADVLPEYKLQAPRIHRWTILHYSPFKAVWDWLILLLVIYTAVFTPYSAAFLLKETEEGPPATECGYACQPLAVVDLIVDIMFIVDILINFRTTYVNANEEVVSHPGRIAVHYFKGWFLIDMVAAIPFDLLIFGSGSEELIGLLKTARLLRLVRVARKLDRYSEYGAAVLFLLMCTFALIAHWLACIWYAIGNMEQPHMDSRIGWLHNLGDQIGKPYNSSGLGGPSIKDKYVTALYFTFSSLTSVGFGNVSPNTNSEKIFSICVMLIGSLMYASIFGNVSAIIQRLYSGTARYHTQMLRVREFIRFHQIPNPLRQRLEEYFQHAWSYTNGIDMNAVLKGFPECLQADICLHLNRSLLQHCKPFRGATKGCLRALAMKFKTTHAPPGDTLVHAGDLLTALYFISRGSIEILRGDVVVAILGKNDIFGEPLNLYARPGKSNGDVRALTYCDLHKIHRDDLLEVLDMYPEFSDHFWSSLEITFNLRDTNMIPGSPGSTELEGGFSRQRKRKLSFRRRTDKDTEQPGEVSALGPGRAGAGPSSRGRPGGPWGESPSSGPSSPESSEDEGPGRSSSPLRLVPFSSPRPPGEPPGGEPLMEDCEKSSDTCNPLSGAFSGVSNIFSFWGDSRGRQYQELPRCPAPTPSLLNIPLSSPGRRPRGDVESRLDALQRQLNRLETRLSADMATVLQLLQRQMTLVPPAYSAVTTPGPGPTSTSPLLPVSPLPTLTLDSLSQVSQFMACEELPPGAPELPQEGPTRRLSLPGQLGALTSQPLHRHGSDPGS

Row | SMILES | hERG current change (%, negative = inhibition) at 1uM
1 | CC1Cn2c(nc(=O)c3c2NCN(CCc2ccccc2)C3)S1 (stereo not shown) | 12.1%
2 | CC(C)Oc1ccc(S(=O)(=O)N2CCCCC2)cc1NC(=O)C1CSC2(C)CCC(=O)N12 (stereo not shown) | 15.1%
3 | O=C(NCCC1CCCCN1S(=O)(=O)c1ccccc1)C(=O)NCc1ccccc1 (stereo not shown) | 1.97%
4 | COc1cc2c(C(=O)N3CCCc4ccccc43)cn(C)c(=O)c2cc1OC | 7.48%
5 | Cc1cc(=O)n2c3c(cccc13)CCC2 | 1.5%
6 | COCCCNC(=O)c1cc(=O)n(Cc2ccc(Cl)cc2)c2ccccc12 | 3.45%
7 | O=C(O)C1CC(=O)N(Cc2ccc3c(c2)OCO3)C1 (stereo not shown) | 6.73%
8 | CN(C)c1cc(Nc2ccc(O)cc2)c([N+](=O)[O-])c2nonc12 | 3.47%
9 | CCOCCCNC(=O)Cc1ccc(-n2c(CC)nc3cccnc32)cc1 | 2%
10 | CCN(c1ccc(F)cc1)S(=O)(=O)c1ccc2[nH]cc(C(=O)NCCCN3CCOCC3)c(=O)c2c1 | 7.75%
11 | CC(C)Sc1nc2ccccc2c(=O)[nH]1 | 2.04%
12 | O=C1CCC/C(=N/Nc2ccc(Cl)cc2)C1 | 9.45%
13 | Cc1cc(NC(=O)CSc2ccc(-c3ccc4c(c3)OCO4)nn2)no1 | 18.3%
14 | CCOC(=O)Cn1c(=NC(=O)C2CC2)sc2c(C)cc(C)cc21 | 14.3%
15 | O=C(OCC#Cc1c(COC(=O)c2ccccc2)nnn1Cc1ccccc1)c1ccccc1 | 3.27%
16 | COc1ccc(S(=O)(=O)Nc2nc3ccccc3nc2NCC2CCCO2)cc1 (stereo not shown) | 14.1%
17 | Cc1cnc(NS(=O)(=O)c2ccccc2)c(C)n1 | 14.7%
18 | CCCCNS(=O)(=O)NC(=O)C1=C(N2CCCC2)COC1=O | 8.9%
19 | Cc1c(N2C(=O)CSC2c2ccc([N+](=O)[O-])cc2)c(=O)n(-c2ccccc2)n1C (stereo not shown) | 9.13%
20 | Cc1ccc2nc(-c3ccc(NC(=O)CSc4ccccc4)cc3)[nH]c2c1 | 15%
21 | Cc1cc(C)nc(SCc2ccc(C(=O)NNC(=O)Nc3cccc(Cl)c3)cc2)n1 | 11.9%
22 | CC(=C/c1ccc(C(C)C)cc1)/C=N/NC(=O)CSc1ccccn1 | 4.79%

Row | SMILES | hERG current change (%, negative = inhibition) at 1uM
23 | O=C(NC1CCc2ccccc21)c1cc(COc2cncc(Cl)c2)on1 (stereo not shown) | 9.93%
24 | CC1=NN(c2ccccc2)C(=O)C1(C)[N+](=O)[O-] (stereo not shown) | 14.6%
25 | CC1(C)CC(=O)C(C=NCCN2CCN(CC(=O)Nc3ccc(Cl)cc3)CC2)=C(O)C1 | 2.52%
26 | COc1ccc(/C=C(/C#N)c2cccnc2)cc1OC | 12.8%
27 | COC(=O)c1cc(NS(=O)(=O)c2ccc(N3CCCCC3)c([N+](=O)[O-])c2)cc(C(=O)OC)c1 | 3.15%
28 | Cc1ccc(C(=O)C[n+]2ccc(Cc3ccccc3)cc2)cc1.[Cl-] | -24.7%
29 | Cn1c(=O)[nH]c(=O)c2c1nc(N1CCOCC1)n2CC(O)COc1ccc2ccccc2c1 (stereo not shown) | -5.43%
30 | CC(=O)Nc1cc(C(=O)O)ccc1S(=O)(=O)c1ccc(Cl)cc1 | 5.6%
31 | CC1(C)Cc2c(sc(NC(=O)c3ccc(C(=O)c4ccccc4)cc3)c2C#N)C(C)(C)N1 | 5.7%
32 | O=C(NCCc1cccc(Cl)c1)c1cccs1 | 0.471%
33 | CN1CCN(c2ccc(Cl)cc2NS(=O)(=O)c2ccccc2Cl)CC1 | 5.2%
34 | CNC(=S)N/N=C/c1ccc(-c2cccc(C(=O)O)c2)o1 | 6.18%
35 | Cc1ccc(C2C(C#N)=C(N)Oc3cc(C)oc(=O)c32)o1 (stereo not shown) | 7.58%
36 | N#Cc1ccccc1S(=O)(=O)N1CCC(C(=O)NCc2ccccc2CN2CCCC2)CC1 | -45.7%
37 | CCOC(=O)c1ccc(N2CCN(c3ccccc3F)CC2)c(NC(=O)Nc2cccc(OC)c2)c1 | -0.332%
38 | C=CC[N+]1(CC#CCOC(c2ccccc2)c2ccccc2)CCOCC1.[Cl-] | 4.52%
39 | CCN1CCN(c2ccc(NC(=O)c3cc(OC)c(OC)c(OC)c3)cc2)CC1.Cl | 8.41%
40 | CCn1c(SCC(=O)N(C)c2ccccc2)nc2c([nH]c3ccccc32)c1=O | 17.3%
41 | Cc1ccc(-c2cc(C(F)F)n3ncc(C(=O)Nc4cn(C)nc4C)c3n2)cc1 | 7.44%
42 | Cc1cc(OCC(=O)Nc2ccncc2)cc(C)c1Br | 10.2%
43 | COc1ccc(OC)c(-c2csc(-c3cccs3)n2)c1 | 11%
44 | S=C1NCN(Cc2ccco2)CN1CCc1ccccc1 | 4.64%

Row | SMILES | hERG current change (%, negative = inhibition) at 1uM
45 | Cc1ccc(C(=O)c2ncc[nH]2)cc1 | 10.2%
46 | O.S=c1nc[nH]c2nc[nH]c12 | -1.51%
47 | COc1cccc(CN2CCN(Cc3ccon3)CC2CCO)c1 (stereo not shown) | 13.4%
48 | C/C(=C\c1ccccc1)C(=O)NCCCn1ccnc1 | 6.52%
49 | COc1ccccc1NC(=O)C1(C)Cc2ccccc2C(=O)O1 (stereo not shown) | 2.39%
50 | N#Cc1ccc(NC(=S)NCCN2CCOCC2)cc1 | 7.42%
51 | Cn1c(=O)c2c(-c3ccccc3)n(-n3cnnc3)cc2n(C)c1=O | 1.24%
52 | FC(F)(F)C(Oc1nc(NC2CCCCC2)nc(N2CCOCC2)n1)C(F)(F)F | 19.9%
53 | CCc1cccc(OCC(=O)Nc2cc(Cl)ccc2-n2cncn2)c1 | -1.27%
54 | O=c1[nH]n2c(C(F)(F)F)cc(C3CC3)nc2c1N=Nc1ccccc1 | 8.92%
55 | CCC(=O)N1CCN(c2ccnc3cc(Cl)ccc23)CC1 | -25.7%
56 | Cc1cccc(NC(=O)N2CCC(NC(=O)c3ccco3)CC2)c1 | 9.14%
57 | CCc1ccc(Nc2nc(N)nc(CSc3nnnn3-c3ccccc3)n2)cc1 | 20.7%
58 | COCCNC(=O)CSc1nc(-c2ccc(OC)c(OC)c2)cc(C(F)(F)F)n1 | 8.93%
59 | O=C(Nc1ccccc1)N1N=C(c2cccs2)CC1c1cccs1 (stereo not shown) | -4.35%
60 | Cc1oc(-c2cccc(Cl)c2)nc1CN1CCC(C(=O)NCCCN2CC(C)CC(C)C2)CC1 (stereo not shown) | 13.9%
61 | Cc1nc2ccccc2n1/C(=N/S(=O)(=O)c1ccc(Br)cc1)c1ccccc1 | 11.6%
62 | CCOC(=O)N1CCN(c2c(NCCc3ccc(C)cc3)c(=O)c2=O)CC1 | -1.23%
63 | O=S(=O)(Nc1ccc(F)cc1)N1CCOCC1 | 6.74%
64 | O=C(NCc1cccnc1)C1CCC(CNS(=O)(=O)c2ccc(Cl)cc2)CC1 (stereo not shown) | 2.81%
65 | COC(=O)c1ccc(Oc2cc(C)nc(-n3nc(C)cc3C)n2)cc1 | -14%
66 | CN(CC(=O)Nc1cccc(F)c1)C(=O)c1ccccc1Cc1ccccc1 | 19.5%

Row | SMILES | hERG current change (%, negative = inhibition) at 1uM
67 | CC1CCN(CCCn2c(=S)[nH]c3c(sc4ccc([N+](=O)[O-])cc43)c2=O)CC1.Cl | 12.7%
68 | Cc1ccccc1C(=O)NNC(=O)CSc1nnc(-c2ccncc2)n1-c1ccccc1 | 4.94%
69 | Cc1ccc(NC(=O)Cn2nnc(-c3ccccc3-n3cnnn3)n2)c(C)c1 | 12.9%
70 | O=C(CCC(=O)N(CC(=O)NC1CCCC1)Cc1ccc(F)cc1)Nc1nccs1 | 12.5%
71 | COc1cccc(C(=O)O/N=C(\C)c2cnccn2)c1 | 0.287%
72 | N#C/C(=C\c1ccncc1)C(=O)Nc1ccc(C(=O)O)cc1 | 12%
73 | COc1ccc(NC(=O)COc2cccc(-n3cnnn3)c2)cc1 | -7.26%
74 | CCCCN(C)CCNC(=O)CN1C(=O)CSc2ccc(S(=O)(=O)N3CCCCC3)cc21 | -6.21%
75 | COCn1cnc(-c2ccccc2)c1-c1ccccc1 | 1.15%
76 | Cc1ccc(C)c(S(=O)(=O)N2CCCC2CNC(=O)C(=O)NCCc2ccco2)c1 (stereo not shown) | 21.1%
77 | Cc1ccc(C2CC(=O)c3cnc(N4CCc5ccccc5C4)nc3C2)cc1 (stereo not shown) | 10.7%
78 | COc1ccc(-c2cccc(NS(=O)(=O)c3ccc([N+](=O)[O-])cc3)c2)nn1 | 2.94%
79 | CCC/C(O)=C1\C(=O)CCCC1=NCCc1c(C)[nH]c2ccccc12 | 4.61%
80 | C=CCSc1nc(C)c(CC(=C)C)c(=O)[nH]1 | 13.4%
81 | COCCn1c(SCC(=O)Nc2ccc(OC)cc2)nnc1-c1ccoc1C | 12.2%
82 | Cc1ccccc1N=Cc1cccc(O)c1O | 13.9%
83 | COC(=O)c1ccc(N2C(=O)CC(N(C)CCc3ccc(OC)c(OC)c3)C2=O)cc1 (stereo not shown) | 11.8%
84 | CCCC(C(=O)NCc1ccc(OC)cc1)N(Cc1ccco1)C(=O)c1snc(C(N)=O)c1N (stereo not shown) | -0.996%
85 | CCNC(=S)NCCC1=c2ccccc2=N/C1=C\c1c(O)n(C)c(=O)n(C)c1=O | 22.5%
86 | C=CCNC(=O)C1CCCN(S(C)(=O)=O)C1 (stereo not shown) | 14%
87 | COc1ccc2c(c1OC)C(=O)O[C@@H]2[C@H]1c2cc3c(cc2CCN1C)OCO3.Cl | 0.42%
88 | CC(C)c1ccccc1NC(=O)COC(=O)CNC(=O)c1ccc(Br)cc1 | 11%
